Among the data in the supplement of paper PMC4604168 (melanoma cell lines) are cell count values, retold here.

Test systems include 501Mel; A101D; A2058; A375.
Common to all, as to test: cell count relative to DMSO control; melanoma cells; higher = more viable cells
Holding throughout (conditions): library dose: standard library concentration; 72 h

The list shows a part of the results. Single values are uncertain, as repeats are few or missing.
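Note: cells treated in 1,536-well plates, then fixed and DAPI-stained, with nuclei counted from automated high-throughput microscope images.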

For `Cn1cncc1[C@@](N)(c1ccc(Cl)cc1)c1ccc2c(c1)c(-c1cccc(Cl)c1)cc(=O)n2C` [tipifarnib] + Oc1nc(-c2ccc(C(F)(F)F)cc2)nc2c1CSCC2 [XAV939] (first compound 0.05 µM, partner dose 10 µM), the cell count in the test on 501Mel came out at 76.7%; with A101D, 95%; in the test on A2058, 66.9%; in the test on A375 it was 89.3%.
In the case of `O=c1[nH]nc(Sc2ncc([N+](=O)[O-])s2)n1-c1ccc2c(c1)OCCO2` + C=CCn1c(=O)c2cnc(Nc3ccc(N4CCN(C)CC4)cc3)nc2n1-c1cccc(C(C)(C)O)n1 [MK1775] (first compound 1 µM, partner dose 0.1 µM), the cell count was 61.2% in the test with A101D, 92.4% with A2058 and 69.7% in the test on A375.
For `O=c1[nH]nc(Sc2ncc([N+](=O)[O-])s2)n1-c1ccc2c(c1)OCCO2` + Cn1cncc1[C@@](N)(c1ccc(Cl)cc1)c1ccc2c(c1)c(-c1cccc(Cl)c1)cc(=O)n2C [tipifarnib] (first compound 1 µM, partner dose 0.05 µM) the same measures were 78.1%, 92.5% and 88.3%.
Take `CC1(C)NC(=O)N(c2ccc([N+](=O)[O-])c(C(F)(F)F)c2)C1=O` [nilutamide] + CN(NC(=O)CC(=O)NN(C)C(=S)c1ccccc1)C(=S)c1ccccc1 [STA4783] (first compound 5 µM, partner dose 0.03 µM): the values for the cell count in the test with A101D, with A2058 and with A375 were 55.3%, 11.4% and 104%, respectively.
With `C[C@@H]1CCN(C(=O)CC#N)C[C@@H]1N(C)c1ncnc2[nH]ccc12` + CCCCCCCCCCCC1=C(O)C(=O)C=C(O)C1=O [Embelin] (first compound 5 µM, partner dose 6 µM), the cell count with 501Mel turned out to be 95.3%; in the test on A101D it was 101%; in the test with A2058 it was 102%; with A375 it was 101%.
Consider `O=c1[nH]nc(Sc2ncc([N+](=O)[O-])s2)n1-c1ccc2c(c1)OCCO2` + Cn1c(Nc2ccc(C(F)(F)F)cc2)nc2cc(Oc3ccnc(-c4ncc(C(F)(F)F)[nH]4)c3)ccc21 [CHIR265] (first compound 1 µM, partner dose 0.4 µM), for which the cell count with A101D is 51.5%; with A2058 it was 68.6%; in the test on A375, 91.3%.
Consider `CC1(C)NC(=O)N(c2ccc([N+](=O)[O-])c(C(F)(F)F)c2)C1=O` [nilutamide] + CN(C)S(=O)(=O)c1ccc2c(c1)/C(=C/c1cc3c([nH]1)CCCC3)C(=O)N2 [SU6656] (first compound 5 µM, partner dose 2 µM), for which the cell count came to 68.5% with A101D, 96.3% in the test with A2058 and 134% with A375.
For `C[C@@H]1CCN(C(=O)CC#N)C[C@@H]1N(C)c1ncnc2[nH]ccc12` + CN(C)S(=O)(=O)c1ccc2c(c1)/C(=C/c1cc3c([nH]1)CCCC3)C(=O)N2 [SU6656] (first compound 5 µM, partner dose 2 µM) the same measures were 70.6%, 84.1% and 155%.
For `CC1(C)NC(=O)N(c2ccc([N+](=O)[O-])c(C(F)(F)F)c2)C1=O` [nilutamide] + Cn1cncc1[C@@](N)(c1ccc(Cl)cc1)c1ccc2c(c1)c(-c1cccc(Cl)c1)cc(=O)n2C [tipifarnib] (first compound 5 µM, partner dose 0.05 µM) the same measures were 63.2%, 64.8% and 94.7%.
Taken in the same sequence, the figures for `O=c1[nH]nc(Sc2ncc([N+](=O)[O-])s2)n1-c1ccc2c(c1)OCCO2` + CN(NC(=O)CC(=O)NN(C)C(=S)c1ccccc1)C(=S)c1ccccc1 [STA4783] (first compound 1 µM, partner dose 0.03 µM) were 50.4%, 9.84% and 113%.
Regarding `O=c1[nH]nc(Sc2ncc([N+](=O)[O-])s2)n1-c1ccc2c(c1)OCCO2` + CO[C@@H]1[C@H](N(C)C(=O)c2ccccc2)C[C@H]2O[C@]1(C)n1c3ccccc3c3c4c(c5c6ccccc6n2c5c31)C(=O)NC4 [Midostaurin] (first compound 1 µM, partner dose 0.4 µM), the cell count turned out to be 71.6% in the test with A101D, 77.8% with A2058 and 63.2% in the test with A375.
Turning to `CC1(C)NC(=O)N(c2ccc([N+](=O)[O-])c(C(F)(F)F)c2)C1=O` [nilutamide] + NCC(=O)Nc1ccc(-n2nc(C(F)(F)F)cc2-c2ccc3c(ccc4ccccc43)c2)cc1 [OSU03012] (first compound 5 µM, partner dose 5 µM), the cell count in the test with A101D came out at 99.7%; with A2058, 128%; with A375 it was 67.4%.
Taken in the same sequence, the figures for `O=c1[nH]nc(Sc2ncc([N+](=O)[O-])s2)n1-c1ccc2c(c1)OCCO2` + C[C@@H](N)c1ccc(C(=O)Nc2ccnc3[nH]ccc23)cc1 [RKI983] (first compound 1 µM, partner dose 2 µM) were 65.2%, 71.2% and 85.1%.
For `CC1(C)NC(=O)N(c2ccc([N+](=O)[O-])c(C(F)(F)F)c2)C1=O` [nilutamide] + O=C(Nc1cccc(Cl)c1)Nc1ncc(CCNc2ncnc3ccsc23)s1 [SNS314] (first compound 5 µM, partner dose 0.004 µM) the same measures were 82.9%, 67.3% and 91.1%.
Consider `O=c1[nH]nc(Sc2ncc([N+](=O)[O-])s2)n1-c1ccc2c(c1)OCCO2` + COc1ccc(Cl)c(Nc2nc3ccccc3nc2NS(=O)(=O)c2cccc(NC(=O)C(C)(C)N)c2)c1 [XL147] (first compound 1 µM, partner dose 4 µM), for which the cell count in the test with A101D turned out to be 92.2%; in the test on A2058 it was 85.8%; in the test with A375 it was 86.2%.
For `O=c1[nH]nc(Sc2ncc([N+](=O)[O-])s2)n1-c1ccc2c(c1)OCCO2` + COc1ccc(C2=N[C@@H](c3ccc(Cl)cc3)[C@@H](c3ccc(Cl)cc3)N2C(=O)N2CCNC(=O)C2)c(OC(C)C)c1 [Nutlin-3] (first compound 1 µM, partner dose 0.5 µM) the same measures were 69.7%, 133% and 81.4%.
For `C[C@@H]1CCN(C(=O)CC#N)C[C@@H]1N(C)c1ncnc2[nH]ccc12` + Cn1cncc1[C@@](N)(c1ccc(Cl)cc1)c1ccc2c(c1)c(-c1cccc(Cl)c1)cc(=O)n2C [tipifarnib] (first compound 5 µM, partner dose 0.05 µM) the same measures were 96.9%, 71.1% and 107%.
Turning to `CC1(C)NC(=O)N(c2ccc([N+](=O)[O-])c(C(F)(F)F)c2)C1=O` [nilutamide] + NC(=O)Nc1cc(-c2cccc(F)c2)sc1C(=O)N[C@H]1CCCNC1 [AZD7762] (first compound 5 µM, partner dose 0.1 µM), the cell count in the test on A101D came to 67.8%; in the test on A2058, 93.2%; with A375, 75%.
Taken in the same sequence, the figures for `COc1cc(Nc2ncc(F)c(Nc3ccc4c(n3)NC(=O)C(C)(C)O4)n2)cc(OC)c1OC` [Tamatinib] + Cn1cncc1[C@@](N)(c1ccc(Cl)cc1)c1ccc2c(c1)c(-c1cccc(Cl)c1)cc(=O)n2C [tipifarnib] (first compound 2 µM, partner dose 0.05 µM) were 30.9%, 67.7% and 91.9%.
Taken in the same sequence, the figures for `O=c1[nH]nc(Sc2ncc([N+](=O)[O-])s2)n1-c1ccc2c(c1)OCCO2` + Cn1cnc2c(F)c(Nc3ccc(Br)cc3Cl)c(C(=O)NOCCO)cc21 [selumetinib] (first compound 1 µM, partner dose 0.075 µM) were 59.7%, 102% and 69.9%.
Turning to `C[C@@H]1CCN(C(=O)CC#N)C[C@@H]1N(C)c1ncnc2[nH]ccc12` + O=C(Nc1cccc(Cl)c1)Nc1ncc(CCNc2ncnc3ccsc23)s1 [SNS314] (first compound 5 µM, partner dose 0.004 µM), the cell count in the test on A101D was 75.3%; with A2058 it was 97.8%; in the test with A375, 101%.
`O=C(O)c1ccc(-c2c[nH]c3ncc(-c4ccccc4)cc23)cc1C1CCCC1` + COc1cc(N2CCC(N3CCN(C)CC3)CC2)ccc1Nc1ncc(Cl)c(Nc2ccccc2S(=O)(=O)C(C)C)n1 [NVP-TAE684] (first compound 0.8 µM, partner dose 0.4 µM): the cell count in the test with 501Mel turned out to be 76.4%; in the test with A101D it was 74%; in the test with A2058, 55.7%; with A375 it was 79.6%.
Consider `CC1(C)NC(=O)N(c2ccc([N+](=O)[O-])c(C(F)(F)F)c2)C1=O` [nilutamide] + COc1cc2c(Oc3ccc4[nH]c(C)cc4c3F)ncnc2cc1OCCCN1CCCC1 [cediranib] (first compound 5 µM, partner dose 2 µM), for which the results for the cell count in the test with A101D, in the test with A2058 and in the test on A375 were 91.3%, 93.6% and 97.8%, respectively.
Taken in the same sequence, the figures for `O=c1[nH]nc(Sc2ncc([N+](=O)[O-])s2)n1-c1ccc2c(c1)OCCO2` + Cc1cc(Nc2cc(N3CCN(C)CC3)nc(/C=C/c3ccccc3)n2)n[nH]1 [ENMD2076] (first compound 1 µM, partner dose 0.2 µM) were 72%, 89.1% and 72.2%.
For `O=c1[nH]nc(Sc2ncc([N+](=O)[O-])s2)n1-c1ccc2c(c1)OCCO2` + CC1(C)CCC(c2ccc(Cl)cc2)=C(CN2CCN(c3ccc(C(=O)NS(=O)(=O)c4ccc(N[C@H](CCN5CCOCC5)CSc5ccccc5)c(S(=O)(=O)C(F)(F)F)c4)cc3)CC2)C1 [ABT263] (first compound 1 µM, partner dose 2 µM) the same measures were 52.8%, 75.2% and 71.3%.
As to `COc1cc(Nc2ncc(F)c(Nc3ccc4c(n3)NC(=O)C(C)(C)O4)n2)cc(OC)c1OC` [Tamatinib] + C[C@@H]1CCN(C(=O)CC#N)C[C@@H]1N(C)c1ncnc2[nH]ccc12 [CP690550] (first compound 2 µM, partner dose 5 µM), the cell count came to 59.9% in the test on A101D, 85.4% in the test on A2058 and 81.1% in the test with A375.
